± gives the standard deviation of the averaged measurements. Whole data set: some 33,000 sequences, median “E-score (dimensionless, -0.5 to 0.5)” near -0.046, cut for the highest 2% near 0.36. Some of the results follow.
Tested on: T1, SpTbr T-box DNA-binding domain (GST fusion)
T1 sequence: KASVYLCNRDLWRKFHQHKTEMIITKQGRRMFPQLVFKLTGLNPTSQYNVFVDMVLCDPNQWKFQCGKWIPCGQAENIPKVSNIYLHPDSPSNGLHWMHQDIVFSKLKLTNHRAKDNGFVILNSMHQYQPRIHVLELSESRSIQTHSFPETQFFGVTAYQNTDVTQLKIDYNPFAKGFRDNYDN
Experiment: PBM E-score of 8-mer (E-score (dimensionless, -0.5 to 0.5)); Tbr is Tbrain of the sea star Patiria miniata (Pm) or the sea urchin Strongylocentrotus purpuratus (Sp); higher = stronger binding preference; most listed sequences are background and not binding sites
Conditions: the construct has about 5 more residues each side
In short: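 GST-fused Tbr T-box DNA-binding domains (the whole T-box plus about five flanking residues) were expressed in BL21 E. coli at 20 °C and purified by glutathione affinity chromatography. Universal Agilent oligonucleotide arrays were made double-stranded by primer extension, incubated with 200 nM protein in PBS (pH 7.5), then scanned and quantified. Every ungapped 8-mer was scored from probe intensities. The Universal PBM Analysis Suite gave each word an enrichment E-score, averaged over duplicate arrays.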

Sequence | PBM E-score of 8-mer
TACAAGAA | -0.162 ± 0.068
CTAGTCAC | 0.157 ± 0.038
CCGGGCTA | -0.195 ± 0.029
CACAGGTG | 0.453 ± 0.005
CTGCCCAA | -0.0499 ± 0.13
GTTGACAA | 0.389 ± 0.016
ATACGTGC | 0.0518 ± 0.01
AACTACCC | -0.101 ± 0.02
AAGGTAGA | -0.205 ± 0.051
AGATTTAA | -0.0993 ± 0.024
ACACGCGC | 0.227 ± 0.05
CTAAGGCA | -0.0263 ± 0.033
AATCGTAG | -0.147 ± 0.02
CGTCCCAC | -0.0142 ± 0.037
GAGTTGCA | 0.0465 ± 0.0034
CTCGAATA | -0.0405 ± 0.095
CCGCACAA | 0.121 ± 0.067
ATGCACCG | -0.0673 ± 0.0013
AAAGAATT | -0.183 ± 0.04
AAGTGGTC | -0.0526 ± 0.0075
CTGCCATC | -0.0451 ± 0.048
GAGGTACC | 0.00431 ± 0.0012

Sequence | PBM E-score of 8-mer
ACCCGCTA | 0.17 ± 0.021
AGAAGTAA | -0.112 ± 0.028
ATTCTGTA | -0.132 ± 0.057
CGACACCC | 0.416 ± 0.028
CGCATCTA | 0.0404 ± 0.06
CATGTCCC | -0.163 ± 0.03
AAATTATG | -0.054 ± 0.07
CCGTTAAG | 0.175 ± 0.036
GATCAGCC | -0.106 ± 0.049
TGCAATAA | -0.129 ± 0.011
CGGATTGA | -0.09 ± 0.073
AACGTGAC | 0.248 ± 0.028
CGGTAGAA | -0.192 ± 0.048
ATTGACGG | 0.144 ± 0.0081
AGTTTGGG | -0.0494 ± 0.022
AGCGGATC | 0.0611 ± 0.053
AATCAGTG | 0.0458 ± 0.0095
AATGATGC | -0.0164 ± 0.065
AGCAAAAC | 0.0131 ± 0.017
CTATAAGA | -0.00374 ± 0.091
GCCCTTAC | -0.00743 ± 0.12
ACCACCAG | -0.188 ± 0.074

Sequence | PBM E-score of 8-mer
CAGGGGCC | -0.0729 ± 0.012
ACTCGAGA | -0.0321 ± 0.017
GCGGGCAC | 0.11 ± 0.031
CTCCTCAG | -0.0357 ± 0.025
GTCATCGA | 0.2022 ± 0.00077
TCCGTCGA | -0.121 ± 0.008
TCGAAACA | -0.0701 ± 0.042
CTTCCAGC | -0.111 ± 0.1
TCCTGCGA | 0.0345 ± 0.024
ATGCTTTA | -0.108 ± 0.0093
GGCGCGCA | 0.153 ± 0.047
CGGAGGTA | -0.208 ± 0.064
AGAGGTCG | -0.0757 ± 0.0026
AGCTTTTC | 0.081 ± 0.038
CTTGTAAC | 0.0776 ± 0.026
AGGTTACG | -0.00206 ± 0.019
CTCGAGTA | -0.0877 ± 0.0017
CCGCAGTA | -0.0295 ± 0.032
ACATTAGT | -0.133 ± 0.019
GTAAGCAA | -0.0379 ± 0.057
TACGAGGA | -0.291 ± 0.011
AATACTTA | -0.157 ± 0.063

Sequence | PBM E-score of 8-mer
CTTTTGGC | 0.061 ± 0.046
AATGCAAC | -0.174 ± 0.0024
ATACTTAA | -0.166 ± 0.048
TAATTCGA | -0.139 ± 0.015
CTGACATC | -0.107 ± 0.031
ATTTCAGC | -0.137 ± 0.099
CAGTTTAA | -0.00677 ± 0.046
ACCTGGGA | 0.136 ± 0.037
CAGGTGAC | 0.425 ± 0.013
CGGTCCTC | -0.145 ± 0.033
CGAAACTA | -0.0459 ± 0.041
GGTCATGA | -0.323 ± 0.028
AGTGCAAT | 0.115 ± 0.002
CCTCGCGC | 0.343 ± 0.032
ATACCTGA | -0.106 ± 0.078
CTCATAAA | -0.187 ± 0.12
CCTAGACA | -0.00551 ± 0.04
CGATTTGC | 0.178 ± 0.0076
ATCTAGAG | 0.0228 ± 0.039
ATCTATGA | -0.124 ± 0.091
